Source: PubChem BioAssay AID652104 (National Center for Advancing Translational Sciences (NCATS), 2013)
Out of some 410,000 compounds screened, about 7,200 (1.8%) were called active. Inconclusive means that the source gave no clear call. Such entries were picked first, then a sample of the others. The call rests on the fitted dose curve; in most records, active means well fitted activation curve with a large enough effect; inconclusive means small, poorly fitted or top-dose-only effect, or another doubt; inactive means no such curve, though single readings can be large or run the other way. No potency is given beside an inconclusive call; the fits are too rough.

Test: qHTS of TDP-43 Inhibitors; further: nearly all actives have a fitted effect of over 50% in size
Conditions: TDP-43 expressing yeast growth rescue, BacTiter-Glo, 24 h; series mostly up to 46.1 µM
Outline: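 In this qHTS, compounds that restore growth of yeast expressing TDP-43 appear as activators. Cells (OD600=0.02, galactose medium, raffinose-pregrown) are incubated with compound 24 hr at 30 deg C and growth is quantified by BacTiter-Glo.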
Potency means the concentration at half of the fitted maximal effect; tags describe the fitted curve by direction and shape.

Row | SMILES | Potency
1 | CCn1c(/C=C/c2ccccc2)nc2ccccc2c1=O | active: 35.5 µM
2 | Oc1ccc(Cl)cc1C1=NNC(c2ccc(Cl)cc2)C1 (centres undefined) | inconclusive [activator, partial curve]
3 | Cn1c(SCc2c(Cl)cccc2Cl)nnc1-c1cccs1 | active: 17.8 µM
4 | CCc1c(C)nc2ncnn2c1Nc1ccc(C)cc1 | inconclusive [activator, single point]
5 | Clc1cccc(Cc2c(-c3cccc(Br)c3)nc3ccc(Br)cn23)c1 | active: 20 µM
6 | O=C(N1CCCCCC1)n1c(Cc2ccccc2)nc2ccccc21 | inconclusive [activator, partial curve]
7 | CCOc1ccc(OCCSc2nc3ccccc3n2CC(=O)O)cc1 | inactive
8 | CC(NC(=S)Nc1ccc(OC(F)F)cc1)c1ccc(F)cc1 (centres undefined) | inconclusive [activator, partial curve, poor fit]
9 | CCOCCc1nn2c(=O)cc(COC(=O)c3ccccc3NC(=O)C3CCCCC3)nc2s1 | inconclusive [activator, partial curve]
10 | O=C(NC(NC(=S)Nc1c(Cl)cc(Cl)cc1Cl)C(Cl)(Cl)Cl)OCc1ccccc1 (centres undefined) | inconclusive [activator, full curve, poor fit]
11 | c1ccc(Cc2nnc3sc(-c4cccs4)nn23)cc1 | inconclusive [activator, single point]
12 | N#Cc1nc(-c2ccc(OCc3ccccc3)cc2)oc1N1CCC(C(N)=O)CC1 | inactive
13 | S=C1SCN(Cc2ccccc2)CN1Cc1ccccc1 | inconclusive [activator, single point]
14 | Oc1c(N=Nc2nn[nH]n2)ccc2ccccc12 | active: 35.5 µM
15 | Cc1nnc(SCc2ccc3c(c2)OCO3)s1 | inconclusive [activator, single point]
16 | C=CCOc1ccc(/C=C/C(C)=N\O)cc1 | active: 10 µM
17 | Cc1ccc(-c2noc(/C=C/c3ccccc3)n2)cc1 | inactive
18 | COc1cccc(-c2cnc3cccnn23)c1 | inconclusive [activator, partial curve]
19 | CCn1c(NC(=S)Nc2ccccc2)nc2ccccc21 | inconclusive [activator, single point]
20 | CCCCN(CC)CCCNC(=O)c1nn(C)c2c1CS(=O)(=O)c1ccccc1-2 | inactive
21 | Cc1nc(SCC(=O)N2CCc3ccccc3C2)c2c(C)c(C)sc2n1 | inconclusive [activator, single point]
22 | Cc1cccc(N2CCN(C(=O)COc3ccc4c(C)cc(=O)oc4c3C)CC2)c1C | inconclusive [activator, single point]
23 | CCc1c(C)sc(NC(=O)c2cc(-c3cccc(Cl)c3)on2)c1C#N | inactive
24 | CC(=O)c1ccc2noc(-c3cccc(F)c3)c2c1 | inconclusive [activator, full curve]
25 | CNC(=O)c1sccc1SCc1c(Cl)cccc1Cl | inconclusive [activator, partial curve]

Row | SMILES | Potency
26 | CCn1c2ccccc2c2cc(NC(=O)N3CCCCC3)ccc21 | inconclusive [activator, single point]
27 | CC(C)N(C(=O)CSc1nnc(NC(=O)c2ccco2)s1)C(C)C | inconclusive [activator, partial curve]
28 | COc1ccccc1-c1nc2c(c(SCC(=O)Nc3ccc(C)c(C)c3)n1)Cc1c(CO)cnc(C)c1O2 | inactive
29 | COc1ccc(C)cc1NC(=O)CC1COc2ccccc2O1 (centres undefined) | inconclusive [activator, single point]
30 | ONC(=Nc1ccc(Cl)cc1)c1ccccc1 | inconclusive [activator, partial curve]
31 | Cc1ccc2c(CC(=O)N3CCN(S(=O)(=O)c4cccs4)CC3)coc2c1 | inconclusive [activator, single point]
32 | CCC/C=N/Nc1nnc(Cc2ccccc2)c(=O)[nH]1 | inactive
33 | O=C(Cc1ccccc1)Nc1ccc(SC(F)F)cc1 | inconclusive [activator, single point]
34 | COc1ccc(C2=C(C)C(=NCCCN3CCN(c4cc(C)ccc4C)CC3)NS2(=O)=O)cc1 | inactive
35 | N=c1c2c(-c3ccccc3)c(-c3ccccc3)n(Cc3ccco3)c2ncn1CCCn1ccnc1 | inconclusive [activator, single point]
36 | O=[N+]([O-])c1cccc(C(=Nc2ccccc2Cl)NO)c1 | inconclusive [activator, single point]
37 | COc1cccc(Cn2c(CNC(=O)Cc3cccc(C)c3)nc3cccnc32)c1 | inactive
38 | O=C(CC(=O)OCc1ccccc1)OCc1ccccc1 | inconclusive [activator, single point]
39 | CCCCC(=O)N1C(C)CCC1C (centres undefined) | inactive
40 | COC(=O)[C@@]1(Sc2ccc(C)cc2)CC(=O)N(C(=O)CCc2ccccc2)[C@@H]1c1ccccc1 | inconclusive [activator, partial curve]
41 | CCCNC(=O)c1cc2c(c(-c3cccc(-c4ccc(F)cc4)c3)n1)[C@H](CCO)N(S(=O)C(C)(C)C)C2 (some centres undefined) | inconclusive [activator, full curve, poor fit]
42 | Cc1ccc(S(=O)(=O)CC(=O)Nc2sc3c(c2C#N)CCCC3)cc1 | inactive
43 | CCn1cc(CCC(=O)NCc2ccccc2OC)c2ccccc21 | inconclusive [activator, single point]
44 | COc1cccc(-c2nnc(SCN3C(=O)c4ccccc4C3=O)n2C)c1 | inconclusive [activator, single point]
45 | Cc1ccc(CSCC(=O)N2CCN(c3ccccc3F)CC2)cc1 | inconclusive [activator, partial curve]
46 | Cc1ccc(C)c(C(=O)COC(=O)c2n[nH]c3ccccc23)c1 | active: 20 µM
47 | O=C(NCc1cccc(Cl)c1)c1ccc(-n2cncn2)c2ccoc12 | active: 35.5 µM
48 | O=C(NC1CC1)c1cccc(Oc2ccccc2)c1 | inconclusive [activator, single point]
49 | COc1ccc(C)cc1NC(=O)c1c(C)oc2ncn(CC(C)C)c(=O)c12 | active: 15.8 µM
50 | CCCn1cc(S(=O)(=O)c2ccccc2)c(=O)c2cc(F)c(N3CCCC(C)C3)cc21 (centres undefined) | inactive

Row | SMILES | Potency
51 | Cc1c(O)c(S(=O)c2ccccc2)c(=O)n(-c2ccccc2)c1-c1ccccc1 (centres undefined) | inconclusive [activator, single point]
52 | OC(CN1C2=NCCCN2c2ccccc21)c1ccc(Cl)cc1 (centres undefined) | inactive
53 | COc1ccc(Cl)cc1C1=CC(=O)C[C@H](c2ccc(F)cc2)C1 | active: 12.6 µM
54 | O=C(NNC(=O)c1cc(-c2ccc(Cl)cc2Cl)nc2ccccc12)Nc1ccccc1 | inconclusive [activator, partial curve]
55 | O=C(OCc1ccc(Br)cc1)c1cccnc1Cl | inconclusive [activator, partial curve]
56 | N#Cc1c(-c2ccc3c(c2)OCO3)csc1N | active: 15.8 µM
57 | O=C(c1ccccc1)c1ccc(O)c(O)c1O | inconclusive [activator, partial curve]
58 | Cc1cccc(N2CCN(S(=O)(=O)c3cccc4nonc34)CC2)c1C | active: 28.2 µM
59 | CCOc1ccccc1OCCOCCN1CCN(Cc2ccccc2)CC1 | inactive
60 | Cc1cc(C)c2nc(NNC(=O)c3cc(=O)c4ccccc4o3)sc2c1 | inconclusive [activator, full curve, poor fit]
61 | CCOc1ccc(OCCCCNC(C)(C)C)cc1 | inactive
62 | CCOc1ccc(NC(=O)c2nn(C)c3c2CS(=O)(=O)c2ccccc2-3)cc1 | inconclusive [activator, full curve, poor fit]
63 | COc1ccc(Cc2nn3c(-c4ccccc4Br)nnc3s2)cc1 | inconclusive [activator, single point]
64 | CC(C)C(=O)Nc1ccccc1C(=O)OCC(=O)c1ccc2c(c1)OCCO2 | inconclusive [activator, single point]
65 | COc1cccc(C(=O)NC(=S)Nc2ccccc2N2CCOCC2)c1 | active: 12.6 µM
66 | O=c1c2ccccc2ncn1CCCSc1ccc(Cl)cc1 | inconclusive [activator, single point]
67 | COc1ccc(CNC(=O)C2=C(C)C(=O)OC23CCC(C)CC3)cc1 (centres undefined) | active: 15.8 µM
68 | Cc1ccc(S(=O)(=O)N2CCN(C(=O)CSC(=S)N3CCCC3)CC2)c(C)c1 | inconclusive [activator, single point]
69 | O=C(C[C@H]1C(=O)N(CCc2ccccc2)C[C@@H]1c1ccccc1)Nc1ccccc1 | inconclusive [activator, partial curve]
70 | CC(=O)Nc1ccc2c(c1)C(=O)c1ccccc1C2=O | inconclusive [activator, full curve]
71 | CCOC(=O)c1c(NC(=O)COc2cc(C)ccc2C(C)C)sc(C)c1C | inactive
72 | CC1=NN(C(N)=S)C(=O)C1N=Nc1cccc(C)c1 (centres undefined) | inconclusive [activator, full curve, poor fit]
73 | C[C@@H](c1ccccc1)N1C[C@H](COCc2ccccc2)Oc2cc(N3CCC[C@H]3C(N)=O)ccc2S1(=O)=O | inactive
74 | Cc1ccc(NC(=O)c2ccc(Cl)c(S(=O)(=O)N3CCCCC3)c2)nc1 | inconclusive [activator, single point]
